{"source": "PubChem BioAssay AID588342", "about": "(National Center for Advancing Translational Sciences (NCATS), 2011)", "note": "Out of some 360,000 compounds screened, about 25,000 (6.9%) were called active. The shares of active, inactive and inconclusive entries below differ from those in the screen. Calls come from the whole dose curve; as a rule, active = well fitted inhibition curve with a large enough effect; inconclusive = small, poorly fitted or top-dose-only effect; inactive = flat fitted curve, though single readings scatter. Where the call is inconclusive, the potency comes from a doubtful curve fit. Potency is the fitted concentration of half-maximal effect; tags give direction and shape of the fitted curve."}
{"target": "Luciferin 4-monooxygenase (Photinus pyralis) (UniProt P08659)", "sequence (P08659 whole entry, looked up)": "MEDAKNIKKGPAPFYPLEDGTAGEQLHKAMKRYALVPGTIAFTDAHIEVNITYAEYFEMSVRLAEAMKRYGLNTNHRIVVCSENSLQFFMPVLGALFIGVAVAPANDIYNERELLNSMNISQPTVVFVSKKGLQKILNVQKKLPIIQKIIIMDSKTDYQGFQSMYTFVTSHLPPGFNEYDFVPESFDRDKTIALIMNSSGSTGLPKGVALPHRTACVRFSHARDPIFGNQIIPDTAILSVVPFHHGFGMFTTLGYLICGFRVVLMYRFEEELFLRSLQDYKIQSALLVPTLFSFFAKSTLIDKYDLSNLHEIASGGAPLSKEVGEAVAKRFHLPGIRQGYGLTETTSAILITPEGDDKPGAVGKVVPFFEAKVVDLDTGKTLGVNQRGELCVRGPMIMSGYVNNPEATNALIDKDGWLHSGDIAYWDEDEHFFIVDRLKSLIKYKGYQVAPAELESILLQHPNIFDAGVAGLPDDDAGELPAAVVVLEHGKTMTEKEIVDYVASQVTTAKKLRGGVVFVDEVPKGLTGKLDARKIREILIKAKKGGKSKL", "assay": "qHTS profiling assay for firefly luciferase inhibitor/activator using purifed enzyme and Km concentrations of substrates (counterscreen for miR-21 project); note: nearly all actives have a fitted effect of over 55% in size;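 for activity change, negative = inhibition: plate controls were vehicle for no effect and reference inhibitor for full effect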", "conditions": "purified FLuc, luminescence inhibition; series mostly up to 57.5 µM; activity change, negative = inhibition: at the top concentration", "how_it_was_run": "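Biochemical qHTS of compounds, final roughly 60 µM downward over six points, against 10 nM purified firefly luciferase using Km concentrations of substrates (10 uM D-luciferin, 10 uM ATP) in Tris acetate pH 7.5 buffer; luminescence output.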"}
{"smiles": "Cc1ccc(OCCCOc2cccc3cccnc23)cc1C", "Potency": "inconclusive: 21.3 µM [inhibitor, single point]"}
{"smiles": "O=C(Nc1cccnc1)c1cc(Br)c(Br)s1", "Potency": "inconclusive: 26.9 µM [inhibitor, partial curve, poor fit]"}
{"smiles": "Cc1nnc2n(-c3ccccc3)c(=O)c3c4c(sc3n12)CC(C)CC4", "note": "(configuration not stated)", "activity change, negative = inhibition": "inactive: 2.03%"}
{"smiles": "Cc1cc(NS(=O)(=O)c2ccc(Nc3nc(-c4sc(NC(=O)c5ccccc5)nc4C)cs3)cc2)no1", "Potency": "inconclusive: 23.9 µM [inhibitor, single point]"}
{"smiles": "CCc1ccc(NC(=O)CN2CCSc3ccc(S(=O)(=O)N4CCCC4)cc32)cc1", "Potency": "inconclusive: 21.3 µM [inhibitor, partial curve, poor fit]"}
{"smiles": "Cc1ccc2c(c1)sc[n+]2Cc1ccccc1", "Potency": "active: 5.36 µM"}
{"smiles": "Cc1cc(C)c2c(N)c(C(=O)NC3CCCC3)sc2n1", "Potency": "inconclusive: 37.9 µM [inhibitor, single point]"}
{"smiles": "CC(C)NCc1nnc(-c2ccc(Cl)cc2)o1", "activity change, negative = inhibition": "inactive: -9.89%"}
{"smiles": "COc1ccccc1S(=O)(=O)Cc1ccc(C(=O)N2CCN(c3cccc(Cl)c3)CC2)o1", "Potency": "inconclusive: 37.9 µM [inhibitor, single point]"}
{"smiles": "OCC1(Cc2ccccc2)CCN(Cc2cnc(-c3ccc(Cl)cc3)nc2)CC1", "Potency": "inconclusive: 23.9 µM [inhibitor, partial curve, poor fit]"}
{"smiles": "O=C(Nc1cccc(-c2nc3ccccc3s2)c1)c1cccs1", "Potency": "active: 13.5 µM"}
{"smiles": "COc1ccc(CCNc2nc(-c3ccc(F)cc3)cc(C(F)(F)F)n2)cc1OC", "activity change, negative = inhibition": "inactive: 2.3%"}
{"smiles": "COc1cc(C=Nc2cccc([N+](=O)[O-])c2C)ccc1OC(C)=O", "Potency": "inconclusive: 21.3 µM [inhibitor, partial curve, poor fit]"}
{"smiles": "CSC(=NNC(=O)c1ccccc1O)SC", "Potency": "inconclusive: 19 µM [inhibitor, partial curve]"}
{"smiles": "O=C(CSc1nc(=O)n(Cc2ccco2)c2c1CCC2)NCc1ccccc1Cl", "activity change, negative = inhibition": "inactive: -15.3%"}
{"smiles": "COc1ccc(-c2nc3ccccc3c(=O)n2CC(C)C)cc1", "Potency": "inconclusive: 23.9 µM [inhibitor, partial curve, poor fit]"}
{"smiles": "CCCCCNC(=O)c1ccc2c(=O)[nH]c3c(C(=O)NCC4CCCO4)sc(=S)n3c2c1", "note": "(configuration not stated)", "Potency": "inconclusive: 19 µM [inhibitor, single point]"}
{"smiles": "Cc1cc(N2CCN(C)CC2)nc2ccc(NC(=O)Nc3ccc(Cl)cc3)cc12", "Potency": "inconclusive: 23.9 µM [inhibitor, partial curve, poor fit]"}
{"smiles": "Cc1ccc(NC(=O)c2cnccn2)nc1", "Potency": "active: 9.53 µM"}
{"smiles": "CCn1cc(/C=N/NC(=O)c2ccc3c(c2)OCO3)c(C)n1", "Potency": "inconclusive: 23.9 µM [inhibitor, partial curve]"}
{"smiles": "COCCNC(=O)CN1C(=O)COc2ccc(S(=O)(=O)N3CCOCC3)cc21", "activity change, negative = inhibition": "inactive: 1.07%"}
{"smiles": "COC(=O)c1cn(NC(=O)Cn2nc([N+](=O)[O-])c(Br)c2C)c(=O)c2ccccc12", "Potency": "inconclusive: 13.5 µM [inhibitor, partial curve, poor fit]"}
{"smiles": "Nc1oc2ccccc2c(=O)c1-c1ccc2c(c1)OCO2", "Potency": "inconclusive: 37.9 µM [inhibitor, single point]"}
{"smiles": "Clc1ccc(-n2ncc3c(NCc4ccco4)ncnc32)cc1", "Potency": "active: 6.01 µM"}
{"smiles": "Cc1sc(NC(=O)c2ccc(=O)n(C)n2)nc1-c1ccccc1", "Potency": "active: 13.5 µM"}
{"smiles": "Cc1ccc(-c2cc(C(F)(F)F)n3nc(C(=O)Nc4sc5c(c4C#N)CCC(C)C5)cc3n2)cc1", "note": "(configuration not stated)", "activity change, negative = inhibition": "inactive: 2.29%"}
{"smiles": "Cc1ccc2onc(CC(=O)Nc3cc(F)ccc3F)c2c1", "Potency": "inconclusive: 21.3 µM [inhibitor, partial curve, poor fit]"}
{"smiles": "O=C(Nc1ccccc1-c1ccccc1)c1cnccn1", "Potency": "inconclusive: 30.1 µM [inhibitor, partial curve, poor fit]"}
{"smiles": "CC(C)OC(=O)CCC(=O)Nc1nc2ccccc2s1", "Potency": "inconclusive: 23.9 µM [inhibitor, single point]"}
{"smiles": "O=C(N/N=C/c1ccc[nH]1)c1cccnc1", "activity change, negative = inhibition": "inactive: -6.04%"}
{"smiles": "Cc1nnc(NC(=O)CSc2n[nH]c(-c3ccccc3C)n2)s1", "activity change, negative = inhibition": "inactive: -1.25%"}
{"smiles": "Cc1ccc(-c2nc3sc4c(c3c(=O)n2N)CCCC4)cc1", "Potency": "active: 2.13 µM"}
{"smiles": "O=C1Nc2cc(C(=O)NCCCN3CCCC3)ccc2S/C1=C\\c1ccccc1", "Potency": "inconclusive: 30.1 µM [inhibitor, partial curve, poor fit]"}
{"smiles": "CC(NS(=O)(=O)c1cccc(Cl)c1)C(=O)Nc1ccc(-c2nc3ccccc3s2)cc1", "note": "(configuration not stated)", "Potency": "active: 16.9 µM"}
{"smiles": "COc1cccc(Nc2nc(N)c([N+](=O)[O-])c(NCc3ccco3)n2)c1", "Potency": "inconclusive: 37.9 µM [inhibitor, single point]"}
{"smiles": "COC(=O)CSc1nnc(SCc2ccc(Cl)cc2)s1", "Potency": "active: 16.9 µM"}
{"smiles": "CCOC(=O)c1cc(-c2ccccc2)n[nH]1", "Potency": "inconclusive: 23.9 µM [inhibitor, single point]"}
{"smiles": "CSc1nc2c(c(=O)[nH]1)C(c1cccc(Br)c1)CC(=O)N2", "note": "(configuration not stated)", "Potency": "inconclusive: 26.9 µM [inhibitor, partial curve, poor fit]"}
{"smiles": "C#CCNC(=O)C1=C[C@@H](C)C[C@@H](OCc2ccc(CO)cc2)O1", "activity change, negative = inhibition": "inactive: -2.94%"}
{"smiles": "N/C(=N\\OC(=O)COc1ccccc1)c1cccnc1", "activity change, negative = inhibition": "inactive: -0.898%"}
{"smiles": "Cc1nc2ccn(Cc3cccnc3)c(=O)c2cc1C(=O)NCc1ccc(Cl)cc1", "activity change, negative = inhibition": "inactive: -1.21%"}
{"smiles": "Cc1[nH]c2ccc(C(=O)OCCN(C)C)cc2c1C", "Potency": "inconclusive: 23.9 µM [inhibitor, single point]"}
{"smiles": "COc1cc(C(=O)OCC(=O)NC2CCCCC2)cc2c1OCCO2", "activity change, negative = inhibition": "inactive: -0.762%"}
{"smiles": "CCCN1C(=O)/C(=C/c2ccc(N3CCOCC3)cc2)NC1=S", "Potency": "inconclusive: 30.1 µM [inhibitor, single point]"}
{"smiles": "Cc1ccc(NCc2ccccc2-c2nnc(-c3ccccc3Cl)o2)cc1Cl", "Potency": "inconclusive: 4.26 µM [inhibitor, partial curve, poor fit]"}
{"smiles": "Cc1ccc(N=Nc2c(N)nn3c(N)c(C#N)c(C)nc23)cc1", "activity change, negative = inhibition": "inactive: -1.5%"}
{"smiles": "COc1cccc(C(N)=O)c1OC(=O)Cc1ccccc1F", "Potency": "inconclusive: 21.3 µM [inhibitor, single point]"}
